Here are results for 18 compounds from the supplement of paper PMC6609913.

The structures appear in SMILES notation. Structures can show the parent of a compound that is named as a salt. ± gives the standard deviation of the averaged measurements. The full ranking holds about 1,300 compounds; the median of “normalised cell viability” is about 1, and the lowest 2% start at about 0.14. The list shows a part of the results.

In this test the test system is V-C8 (BRCA2-deficient hamster cells). Put plainly: normalised cell viability (fraction of plate median); higher = more viable cells (less toxic). Particulars: 5 µM. The essentials: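 In two screens, library drugs at 5 μM were given for 3 days (screen 1) or 6 days (screen 2) to hamster V-C8 cells without BRCA2 and V-C8 cells with BRCA2 restored, seeded 24 h earlier in 96-well plates. A resazurin assay gave the cell viability readout, expressed as modified robust per cent of sample against the plate median, with triplicate wells averaged.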

In the case of `C#C[C@]1(O)CC[C@H]2[C@@H]3CCC4=CC(=O)CC[C@@H]4[C@H]3CC[C@@]21CC` [Norgestrel-(-)-D], the normalised cell viability is, setting by setting: (treatment time: 3 days) 1.016 ± 0.004; (treatment time: 6 days) 0.997 ± 0.015.

Compound `CC(CN(C)C)CN1c2ccccc2Sc2ccccc21` (stereo unspecified) [Trimeprazine tartrate] showed a normalised cell viability (treatment time: 3 days) of 0.978 ± 0.038 and a normalised cell viability (treatment time: 6 days) of 0.964 ± 0.03.

Consider `CC1(C)[C@@H](OC(=O)CCC(=O)O)CC[C@]2(C)[C@H]3C(=O)C=C4[C@@H]5C[C@@](C)(C(=O)O)CC[C@]5(C)CC[C@@]4(C)[C@]3(C)CC[C@@H]12` [Carbenoxolone disodium salt], for which the normalised cell viability by setting is: (treatment time: 3 days) 1 ± 0.041; (treatment time: 6 days) 1.15 ± 0.26.

With `C=CCOC(Cn1ccnc1)c1ccc(Cl)cc1Cl` (stereo unspecified) [Enilconazole], the normalised cell viability was determined as 0.93 ± 0.04 (treatment time: 3 days) and 0.943 ± 0.015 (treatment time: 6 days).

`CC(CN(C)C)C(C)(O)Cc1ccc(Cl)cc1` (stereo unspecified) [Clobutinol hydrochloride]: the normalised cell viability came out at 1.05 ± 0.13 (treatment time: 3 days) and 1.11 ± 0.064 (treatment time: 6 days).

`C[C@]1(Cn2ccnn2)[C@H](C(=O)O)N2C(=O)C[C@H]2S1(=O)=O` [Tazobactam]: the normalised cell viability was determined as 1.03 ± 0.038 (treatment time: 3 days) and 1.04 ± 0.036 (treatment time: 6 days).

With `CC[C@@H](CO)NCCN[C@@H](CC)CO` [Ethambutol dihydrochloride], the normalised cell viability came out at 1.04 ± 0.046 (treatment time: 3 days) and 1.09 ± 0.12 (treatment time: 6 days).

Take `CC(=O)OCC(=O)[C@@]1(OC(C)=O)[C@@H](C)C[C@H]2[C@@H]3C[C@H](F)C4=CC(=O)C=C[C@]4(C)[C@@]3(F)[C@@H](O)C[C@@]21C` [Diflorasone Diacetate]: the normalised cell viability (treatment time: 3 days) was 1.18 ± 0.074 and the normalised cell viability (treatment time: 6 days) came to 1.02 ± 0.051.

As to `CCCOc1ccc(C(=O)OCCN(CC)CC)cc1N` [Proparacaine hydrochloride], the normalised cell viability by setting is: (treatment time: 3 days) 0.951 ± 0.039; (treatment time: 6 days) 1.01 ± 0.058.

With `COC(=O)Nc1nc2cc([S+]([O-])c3ccccc3)ccc2[nH]1` (stereo unspecified) [Oxfendazol], the normalised cell viability is, setting by setting: (treatment time: 3 days) 0.712 ± 0.076; (treatment time: 6 days) 0.775 ± 0.014.

As to `NC1CCN(c2nc3c(cc2F)c(=O)c(C(=O)O)cn3-c2ccc(F)cc2F)C1` (stereo unspecified) [Tosufloxacin hydrochloride], the normalised cell viability reads like this: (treatment time: 3 days) 1.01 ± 0.048; (treatment time: 6 days) 1.08 ± 0.024.

Regarding `COc1ccccc1OCC(O)COC(N)=O` (stereo unspecified) [Methocarbamol], the normalised cell viability reads like this: (treatment time: 3 days) 1.03 ± 0.038; (treatment time: 6 days) 1.01 ± 0.018.

On to `Cc1cc(N)c2ccccc2[n+]1CCCCCCCCCC[n+]1c(C)cc(N)c2ccccc21` [Dequalinium dichloride], for which the normalised cell viability reads like this: (treatment time: 3 days) 0.171 ± 0.0032; (treatment time: 6 days) 0.162 ± 0.013.

Regarding `Nc1ccn([C@@H]2CS[C@H](CO)O2)c(=O)n1` [Lamivudine], the normalised cell viability was determined as 0.147 ± 0.0082 (treatment time: 3 days) and 0.139 ± 0.012 (treatment time: 6 days).

As to `CO/N=C(\C(=O)N[C@@H]1C(=O)N2C(C(=O)OC(C)OC(C)=O)=C(COC(N)=O)CS[C@H]12)c1ccco1` (stereo partly specified) [Cefuroxime axetil], the normalised cell viability came to 1.04 ± 0.04 (treatment time: 3 days) and 1.02 ± 0.11 (treatment time: 6 days).

On to `O=C(c1ccccc1)c1ccc2n1CCC2C(=O)O` (stereo unspecified) [Ketorolac tromethamine], for which the normalised cell viability reads like this: (treatment time: 3 days) 1.01 ± 0.03; (treatment time: 6 days) 1 ± 0.051.

For `CCOC(=O)[C@@](C)(N)Cc1ccc(O)c(O)c1` [Methyldopate hydrochloride], the normalised cell viability runs as follows: (treatment time: 3 days) 0.895 ± 0.09; (treatment time: 6 days) 0.938 ± 0.063.

`COc1c(N2CCNC(C)C2)c(F)cc2c(=O)c(C(=O)O)cn(C3CC3)c12` (stereo unspecified) [Gatifloxacin]: the normalised cell viability reads like this: (treatment time: 3 days) 1.01 ± 0.046; (treatment time: 6 days) 1.02 ± 0.036.
